Source: patent US20240052055A1 (SIMCERE ZAIMING PHARMACEUTICAL, published 2024)

Columns and labels:
[1] = target: T1, polypeptide GC3pep of human GPC3 (Ala524-Lys563) (human); test: ELISA on coated polypeptide GC3pep, HRP-labeled secondary antibody
T1 construct: Synthetic peptide made by GL Biochem; also called polypeptide GC3pep protein
T1 peptide: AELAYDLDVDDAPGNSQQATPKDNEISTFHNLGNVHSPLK
Method: (§1) After incubation for 2 h at 37° C., the plate was washed 3 times with PBS.

[2] = target: T2, human GPC3 on cells (HepG2 endogenous; CHO-K1 recombinant clones CHOK1-hGPC3.1C3, 2B5, 3E9) (human, UniProt P51654 25-554); test: FACS on CHO-K1-human GPC3 cells
T2 construct: Full-length human GPC3 (NCBI NM_004484.3) transfected into CHO-K1; HepG2 expresses GPC3 endogenously; also called CHO-K1-human GPC3 cells; HepG2 cells

[3] = target: T3, monkey GPC3-His protein (Acro, Cat. No. GP3-05225) (monkey, UniProt A5A6P7 25-559); test: ELISA; antibody 0.01 nM
T3 construct: Bought protein; the soluble protein surely lacks signal peptide and C-terminal anchor region; also called monkey GPC3 protein; not shown: His tag
Method: as §1

[4] = target: T4, human GPC3 (Gln25-His559)-His protein (Acro, Cat. No. GP3-H52H4) (human, UniProt P51654 25-559); test: ELISA; antibody 0.01 nM
T4 construct: Bought protein; also called human GPC3-His protein; human GPC3-his protein; not shown: His tag
Method: as §1

[5] = target: T5, mouse GPC3-His protein (Sino Biological, Cat. No. 50989-M08B) (mouse, UniProt Q8CFZ4 25-558); test: ELISA; antibody 10 nM
T5 construct: Bought protein; also called mouse GPC3 protein; not shown: His tag
Method: as §1

[6] = target: T3, monkey GPC3-His protein (Acro, Cat. No. …); test: ELISA; antibody 10 nM
Method: as §1

[7] = target: T4, human GPC3 (Gln25-His559)-His protein …; test: ELISA; antibody 10 nM
Method: as §1

[8] = target: T6, polypeptide YP7pep of human GPC3 (Asp511-Ser560) (human); test: ELISA on coated polypeptide YP7pep, HRP-labeled secondary antibody
T6 construct: Synthetic peptide made by GL Biochem; also called polypeptide YP7pep protein
T6 peptide: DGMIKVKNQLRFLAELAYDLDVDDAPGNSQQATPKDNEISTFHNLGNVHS
Method: as §1

[9] = target: T5, mouse GPC3-His protein (Sino …); test: SPR (Biacore), antibody captured on Protein A chip
Method: (§2) The sample and running buffer was HBS-EP+ (10 mM HEPES, 150 mM NaCl, 3 mM EDTA, 0.05% surfactant P20) (GE Healthcare; BR-1006-69). The flow cell was set at 25° C. The sample block was set at 16° C. Both were pretreated with the running buffer. […] The association and dissociation processes of the antibody with the antigen protein were recorded, and finally, the chip was regenerated using Glycine pH 1.5 (GE Healthcare; BR-1003-54). […] The dissociation phase was monitored for up to 600 s and triggered by switching from the sample solution to the running buffer. The surface was regenerated by washing with 10 mM glycine solution (pH 1.5) at a flow rate of 30 μL/min for 30 s. The difference in bulk refractive index was corrected by subtracting the responses obtained from the goat anti-human Fc surface. Blank injections were also subtracted (double reference). To calculate the apparent KD and other kinetic parameters, the Langmuir 1:1 model was used.

[10] = target: T2, human GPC3 on cells (HepG2 endogenous; …); test: FACS on HepG2 cells
[11] = target: T4, human GPC3 (Gln25-His559)-His protein …; test: SPR (Biacore), antibody captured on Protein A chip
Method: as §2

T5 sequence (Q8CFZ4 25-558 limits assumed): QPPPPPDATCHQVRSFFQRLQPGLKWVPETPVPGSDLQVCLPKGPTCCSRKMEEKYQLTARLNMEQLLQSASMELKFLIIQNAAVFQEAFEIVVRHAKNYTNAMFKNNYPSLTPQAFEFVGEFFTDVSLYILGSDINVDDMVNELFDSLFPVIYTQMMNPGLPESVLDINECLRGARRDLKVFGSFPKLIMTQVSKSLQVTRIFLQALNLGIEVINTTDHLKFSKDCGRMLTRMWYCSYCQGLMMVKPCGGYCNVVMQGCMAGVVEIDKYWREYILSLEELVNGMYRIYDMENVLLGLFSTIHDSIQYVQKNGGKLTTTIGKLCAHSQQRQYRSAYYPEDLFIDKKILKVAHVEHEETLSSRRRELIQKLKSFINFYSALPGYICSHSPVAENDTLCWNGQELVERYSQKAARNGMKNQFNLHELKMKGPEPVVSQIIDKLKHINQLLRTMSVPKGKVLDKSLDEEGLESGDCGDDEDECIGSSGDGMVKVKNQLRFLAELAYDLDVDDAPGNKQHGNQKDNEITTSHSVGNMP
T3 sequence (A5A6P7 other isoform, or with tags, fused parts or gaps limits assumed): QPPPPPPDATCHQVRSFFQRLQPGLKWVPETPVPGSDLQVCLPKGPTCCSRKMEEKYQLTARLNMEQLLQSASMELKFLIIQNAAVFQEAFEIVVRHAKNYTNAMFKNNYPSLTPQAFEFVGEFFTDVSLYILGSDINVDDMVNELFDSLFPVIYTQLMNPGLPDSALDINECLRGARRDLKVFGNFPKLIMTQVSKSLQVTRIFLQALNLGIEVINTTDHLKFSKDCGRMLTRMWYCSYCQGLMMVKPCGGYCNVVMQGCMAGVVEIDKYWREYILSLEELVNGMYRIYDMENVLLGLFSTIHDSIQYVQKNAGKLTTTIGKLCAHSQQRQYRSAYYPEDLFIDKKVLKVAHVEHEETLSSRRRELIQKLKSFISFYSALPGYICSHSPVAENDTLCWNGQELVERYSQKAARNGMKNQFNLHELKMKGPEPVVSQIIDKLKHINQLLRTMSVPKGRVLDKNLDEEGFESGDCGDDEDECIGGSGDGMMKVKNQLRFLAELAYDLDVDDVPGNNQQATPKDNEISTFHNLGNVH

B1: S001-NB152-72-2 VHH-hFc (Fc fusion)
chain: QVQLVESGGGLVQAGGSLRLSCAASGSILSITAMNWHRQAPGKERELVASITNGGRTNYADSVKGRFTISRDRAKGTLYLQMNNLKPEDTAVYYCYARRWTGGDRPEYESWGQGTQVTVSS[human IgG1 Fc with changes left out]
notes: VHH recombined with human IgG1 Fc (VHH-hFc); the junction is not described
EC50 (read off the curve) [1]: ~0.1 nM | EC50 [2]: 21.6 nM | Max MFI [2]: 2180 | OD450 [3]: 0.236 | OD450 [4]: 0.194 | OD450 [5]: 2.34 | OD450 [6]: 2.16 | OD450 [7]: 2.25 | EC50 (read off the curve) [8]: ~0.06 nM | Kd [9]: 3.99 nM | koff [9]: 0.000872 s⁻¹ | kon [9]: 219000 M⁻¹ s⁻¹

B2: Tab003 (Y035 scFv-hFc) (Fc fusion)
chain: DIVMTQTPLSLPVITGEPASISCRSSQSLVHSNGNTYLQWYLQKPGQSPQLLIYKVSNRFSGVPDRFSGSGSGTDFTLKISRVEAEDVGVYYCSQSIYVPYTFGQGTKLEIKRGGGGSGGGGSGGGGSEVQLVQSGAEVKKPGASVKVSCKASGYTFSDYEMHWVRQAPGQGLEWMGAIHPGSGDTAYNQRFKGRVTITADKSTSTAYMELSSLRSEDTAVYYCARFYSYAYWGQGTLVTVSA[human IgG1 Fc with changes left out]
notes: Control antibody: VL-(GGGGS)3-VH of Y035 fused to human IgG1 Fc; also called Y035 scFv-human IgG1 Fc
EC50 (read off the curve) [1]: ~0.04 nM | EC50 [10]: 6.81 nM | Kd [11]: 3.51 nM | koff [11]: 0.000426 s⁻¹ | kon [11]: 122000 M⁻¹ s⁻¹ | EC50 [2]: 4.79 nM | Max MFI [2]: 11200 | OD450 [3]: 0.364 | OD450 [4]: 0.506 | OD450 [5]: 0.051 | OD450 [6]: 1.95 | OD450 [7]: 2.06 | EC50 (read off the curve) [8]: ~0.03 nM

B3: S001-NB150-28(cyno+) VHH-hFc (Fc fusion)
chain: QVQLVESGGGLVQPGGSLRLSCAASGSISTYTMAWYRQAPGEQRESVAAISSGGRTDYIDSVKGRFTISRDNAKNMVYLQMNSLKPEDTAVYYCNSADGLKIGTYYFKGLGWGQGTQVTVSA[human IgG1 Fc with changes left out]
notes: as for B1
EC50 [2]: 0.4 nM | Max MFI [2]: 4390 | OD450 [3]: 0.056 | OD450 [4]: 0.396 | OD450 [5]: 2.32 | OD450 [6]: 1.87 | OD450 [7]: 2.02 | binding result [8]: binds | Kd [9]: 6.42 nM | koff [9]: 0.0011 s⁻¹ | kon [9]: 171000 M⁻¹ s⁻¹

B4: S001-NB150-56 VHH-hFc (Fc fusion)
chain: QVQLVESGGGLVRPGGSLRVSCAASGVDISTYTMAWYRQAPGEQRESVAAISTTGRSIYIDAVQGRFTMSRDNAKNTVYLQMNNLKPEDTAVYYCNSADDLKIGTQYFKGLGWGQGTQVTVSS[human IgG1 Fc with changes left out]
notes: as for B1
EC50 [2]: 3.74 nM | Max MFI [2]: 1330 | OD450 [3]: 0.044 | OD450 [4]: 0.21 | OD450 [5]: 2.24 | OD450 [6]: 0.406 | OD450 [7]: 1.89 | binding result [8]: no binding (tested: 100 nM) | Kd [9]: 9.28 nM | koff [9]: 0.0129 s⁻¹ | kon [9]: 1.39e+06 M⁻¹ s⁻¹

B5: S001-NB152-101 VHH-hFc (Fc fusion)
chain: QVQLVESGGGLVQAGASLRLSCLGSGRSFGLRAMGWFRQAPGKELEFVAAIGKAGDTTYYTDSVKGRFTISRDNVKNAVYLQMNSLKPEDTAVYVCATAARWEPPTITPGSYRGPGTQVTVSS[human IgG1 Fc with changes left out]
notes: as for B1
EC50 [2]: 0.34 nM | Max MFI [2]: 5440 | OD450 [3]: 0.4 | OD450 [4]: 0.406 | OD450 [5]: 0.073 | OD450 [6]: 2.14 | OD450 [7]: 2.21 | binding result [8]: no binding (tested: 100 nM) | binding result [9]: no binding

B6: VH001 VHH-hFc (Fc fusion)
chain: QLQLVESGGGLVQPGGSLRLSCAASGFTLDVYAIGWFRQAPGKEREGVSYITSGDGIFYADSVKGRFTISRDNAKNTVYLQMNSLKPEDTAVYFCATLKRTTAGGWPIPGRIGGQGTQVTVSS[human IgG1 Fc with changes left out]
notes: as for B1
EC50 [2]: 0.97 nM | Max MFI [2]: 4900 | OD450 [3]: 0.351 | OD450 [4]: 0.495 | OD450 [5]: 1.12 | OD450 [6]: 2.24 | OD450 [7]: 2.08 | binding result [8]: no binding (tested: 100 nM) | Kd [9]: 10.2 nM | koff [9]: 0.00137 s⁻¹ | kon [9]: 134000 M⁻¹ s⁻¹
